Data published in PubChem BioAssay AID463173 (ICCB-Longwood Screening Facility, Harvard Medical School, 2010).
In all, about 52,000 compounds went through this assay and about 4,300 (8.3%) were called active. No stated cut-off is given here; in the data, active means survival mostly below about 52% (no sharp cut-off); inactive means mostly above about 56%. This is one part of the list.

System: DeltatarO mutant
Assay: S. aureus survival, RN4220 and DeltatarO strains – OD600, teichoic acid synthesis inhibitors, primary screen (AID 463173)
Settings: S. aureus RN4220 wild type/DeltatarO growth, OD600, 18 h, active compounds read low, screened at 18.75 µg/mL (by protocol)

| SMILES | survival |
| --- | --- |
| COc1ccc(CC(=O)Nc2c(C(=O)Nc3ccccc3F)oc3ccccc23)cc1 | inactive: 79% |
| O=c1c2c([nH]c3ccccc13)CCC2 | inactive: 118% |
| COCCNC(=O)c1cc2n(n1)CCCN(Cc1ccc(C)cc1)C2=O | inactive: 78% |
| COC(=O)N1N=C(c2ccccc2)CC1(O)C(F)(F)F (stereo not drawn) | inactive: 85% |
| Cc1c(Cl)cccc1Nc1sc(C(=O)c2ccccc2)c(N)c1S(=O)(=O)c1ccccc1 | inactive: 71% |
| CC(=O)Cn1nnc2sc(-c3ccccc3)cc2c1=O | inactive: 65% |
| CN(Cc1ccccc1)C(=O)c1cc2c(=O)n(C)c3ccccc3c2s1 | inactive: 86% |
| CCOC(=O)N1CCc2c(sc3c2c(=O)n(Cc2ccccc2)c(=O)n3Cc2c(F)cccc2Cl)C1 | inactive: 89% |
| CCC1C(=O)N=C(SCC(=O)Nc2cccc3ccccc23)NC1=O (stereo not drawn) | inactive: 79% |
| CSc1cccc(N2C(=O)N(Cc3ccc([N+](=O)[O-])cc3)c3ccccc3S2(=O)=O)c1 | inactive: 97% |
| O=C1CC(c2nc3ccccc3n2Cc2c(F)cccc2Cl)CN1c1cccc(C(F)(F)F)c1 (stereo not drawn) | inactive: 74% |
| CCOC(=O)c1ccc(N2C(=O)c3n[nH]c(-c4cccs4)c3C2c2ccc(C)cc2)cc1 (stereo not drawn) | inactive: 78% |
| Cc1cc(NCCN)nc2ccccc12 | inactive: 100% |
| CC1=C(C(=O)Nc2ccccc2C)C(c2ccccc2O)NC(=S)N1 (stereo not drawn) | inactive: 103% |
| CCCCOc1cccc(C(=O)Nc2cc3nn(-c4ccc(F)cc4)nc3cc2C)c1 | inactive: 81% |
| CCCN(CCC)CCCNC(=O)Cn1ncc2c3ccccc3n(Cc3ccc(F)cc3)c2c1=O | inactive: 91% |
| COCCCNC(=O)CCCn1c(=O)c2cccn2c2cccnc21 | inactive: 95% |
| Cc1nc(C)c(-c2ccc(SCC(=O)Nc3ccccc3F)nn2)s1 | inactive: 118% |
| Cc1cc2ccccc2n1-c1ccc(C(=O)N2CCCCC2)s1 | inactive: 79% |
| COc1cccc(CNC(=O)CCNS(=O)(=O)c2cccc3nsnc23)c1 | inactive: 119% |
| O=C(c1cc2ccccc2o1)N1CCCC1 | inactive: 99% |
| Brc1ccc(-c2cc3c(N4CCN(c5ccccc5)CC4)nccn3n2)cc1 | inactive: 194% |
| Cc1ccccc1NC(=O)c1sc2nc(-c3ccncc3)ccc2c1N | inactive: 39% |
| O=C(CC1C(=O)N(c2ccc(F)cc2)C(=O)N1Cc1cccnc1)Nc1ccc(F)cc1 (stereo not drawn) | inactive: 102% |

| SMILES | survival |
| --- | --- |
| O=C(c1ccccc1)N1CCN(Cc2ccccc2)CC1 | inactive: 72% |
| COc1ccc(CCN2CC(C(=O)NCCc3ccc(C)cc3)CC2=O)cc1OC (stereo not drawn) | inactive: 67% |
| CCCCn1c(COc2cccc(OC)c2)nc2ccccc21 | inactive: 57% |
| COc1ccc(C)cc1NC(=O)CSc1nnc(Cn2nnc3ccccc32)n1C | inactive: 89% |
| CC(C)(CC(=O)OCC(=O)Nc1ccc(F)c(Cl)c1)CC1=NS(=O)(=O)c2ccccc2N1 | inactive: 90% |
| COc1cc(NC(=O)c2cc3c(=O)oc4ccc(C)cc4c3s2)cc(OC)c1OC | inactive: 85% |
| O=C(CSc1nccn1-c1ccc(Cl)cc1)Nc1nc2ccccc2s1 | inactive: 78% |
| CCn1cc(S(=O)(=O)c2ccccc2)c(=O)c2cc(C)ccc21 | inactive: 119% |
| CCOC(=O)c1[nH]c2ccccc2c1NC(=O)c1ccc(OC(C)C)cc1 | inactive: 57% |
| COc1cc(OC)cc(C(=O)Nc2ccc(S(=O)(=O)Nc3cc(C)nc(C)n3)cc2)c1 | inactive: 71% |
| COc1ccccc1CNS(=O)(=O)c1c(C)nc2sccn2c1=O | inactive: 86% |
| CCN(Cc1ccccc1)C(=O)CCNS(=O)(=O)c1ccc2c(c1)CC(C)N2C(C)=O (stereo not drawn) | inactive: 106% |
| Cc1ccc(S(=O)(=O)c2cn(Cc3ccccc3)c3cc(N4CCCC4)c(F)cc3c2=O)cc1C | inactive: 94% |
| COc1cccc(CNC(=O)CCc2c(C)c3cc4c(C)c(C)oc4cc3oc2=O)c1 | inactive: 101% |
| CCOC(=O)c1ccccc1NS(=O)(=O)c1c(-c2ccc(C)cc2)csc1C(=O)OC | inactive: 126% |
| O=C(Nc1ccccc1C1CC1)c1cccs1 | inactive: 93% |
| Cc1nc(-c2ccccc2)sc1CCNC(=O)c1ccco1 | inactive: 86% |
| CCN(C(=O)Cn1ncc2c1-c1cc(C)ccc1OC2)c1cc(Cl)ccc1OC | active: 31% |
| CCc1ccccc1NC(=O)CSc1ncc2c(n1)-c1ccccc1N(Cc1ccc(C)cc1)S2(=O)=O | inactive: 94% |
| CCN(CCCNC(=O)c1cc2cc3cc(C)ccc3nc2s1)c1cccc(C)c1 | inactive: 102% |
| O=C(O)CCN1C(=O)c2ccc(Oc3ccc4c(c3)C(=O)N(CCC(=O)O)C4=O)cc2C1=O | inactive: 69% |
| Cc1ccc(C)c(NC(=O)C(=O)NCCc2csc(-c3ccc(C(F)(F)F)cc3)n2)c1 | inactive: 95% |
| CC(C)(C)C(=O)Nc1ccc2nc(SCC(=O)N3CCCC3)sc2c1 | inactive: 97% |
| COCCNC(=O)Cn1nnc(-c2ccc(OC)cc2)n1 | inactive: 90% |

| SMILES | survival |
| --- | --- |
| O=C(Nc1ccc(NC(=O)c2cccs2)cc1)c1ccc(Br)cc1 | inactive: 124% |
| CC1CCN(C(=O)CCCOc2ccc(Cl)cc2)CC1 | inactive: 95% |
| CC(C)Oc1ccc(CNC(=O)c2ccc(NC(=O)c3nsc4ccccc34)cc2)cc1 | inactive: 76% |
| O=C(OCc1ccccc1Cl)c1ccc(-c2nnn(Cc3ccccc3)n2)cc1 | inactive: 52% |
| CCOC(=O)C(CC)Sc1nnc(COc2ccc(Cl)c(C)c2)n1CC (stereo not drawn) | inactive: 52% |
| CCc1ccccc1N(CC)C(=O)c1cc2c(s1)-c1ccccc1OC2 | active: -5% |
| Cc1cc(C)nc(NC(N)=NC(C)c2ccccc2)n1 (stereo not drawn) | active: 20% |
| CCc1ccc(-n2nc(CO)c(C(=O)NCc3ccccn3)n2)cc1 | inactive: 56% |
| Cc1ccccc1CSc1nc2nc(C)c(Cc3ccccc3)c(C)n2n1 | inactive: 102% |
| COc1ccc(OC)c(CCNC(=O)c2ccc(CS(=O)Cc3cccc(Cl)c3)o2)c1 (stereo not drawn) | inactive: 83% |
| Cc1nc(-c2ccccc2)sc1-c1ccc(SCC(=O)Nc2ccc(F)cc2F)nn1 | active: 19% |
| Cc1oc2ncnc(N3CCCCC3)c2c1C(=O)NCC1CCN(Cc2ccc(F)cc2)CC1 | inactive: 77% |
| CCOC(=O)Cn1c(=O)cc(-c2ccccc2)c2c(C)nn(C)c21 | inactive: 124% |
| O=C1CC(CSc2nnnn2-c2ccccc2)=NN1 | inactive: 101% |
| CCC(C)NC(=O)Cn1c(=O)n(-c2ccc(C)cc2)c(=O)c2ccccc21 (stereo not drawn) | inactive: 87% |
| CN(C(=O)c1nn(C)c2c1COc1ccccc1-2)c1cccc(C(F)(F)F)c1 | inactive: 81% |
| CCOC(=O)c1cn(CC(=O)Nc2cccc(Cl)c2C)nn1 | inactive: 94% |
| COc1ccc(N2CCN(CCCNC(=O)c3cnn(-c4ccc(F)cc4)c3-n3cccc3)CC2)cc1 | inactive: 83% |
| O=C(CN(c1cccc(Br)c1)S(=O)(=O)c1ccccc1)N1CCc2ccccc2C1 | inactive: 86% |
| COCCNC(=O)c1c(NC(=O)Cc2coc3cc(C)ccc23)sc2c1CCCC2 | inactive: 58% |
| Cc1nnc(N2CCN(c3ccccc3F)CC2)c2c1nnn2Cc1ccc(F)cc1 | inactive: 89% |
| CCOc1ccccc1NC(=O)C(NS(=O)(=O)c1cccc2nsnc12)c1ccccc1 (stereo not drawn) | inactive: 92% |
| COc1ccc(-n2ncc(C(=O)N3CCN(c4ccccn4)CC3)c2C2CCN(C(=O)OC(C)(C)C)CC2)cc1 | inactive: 78% |
| CCC(CC)c1nn2c(=O)cc(COc3ccc(NC(=O)c4ccc(Cl)cc4)cc3)nc2s1 | inactive: 99% |

| SMILES | survival |
| --- | --- |
| O=C(OCc1ccccn1)c1ccc(COc2ccccc2Cl)o1 | inactive: 99% |
| CCCCNc1nc(Oc2ccc(=O)n(-c3ccccc3)n2)nc(N(C)C)n1 | inactive: 78% |
| CCN(CC)c1cc2c(cc1F)c(=O)c(S(=O)(=O)c1cc(C)ccc1C)cn2Cc1ccccc1 | inactive: 77% |
| Cc1ccoc1C(=O)NCc1occc1C(=O)O | inactive: 85% |
| O=S(=O)(c1ccccc1)N1CCCc2ccccc21 | inactive: 110% |
| CCOc1ccccc1-n1nnc(-c2nc(-c3ccccc3)no2)c1N | inactive: 86% |
| CCOc1ccc(C2=NC(c3cccs3)=Nc3ccc(C(C)C)cc3N2)cc1 | inactive: 58% |
| CC(C)(Cc1nc2ccccc2[nH]1)c1nc2ccccc2[nH]1 | inactive: 97% |
| N#Cc1c(N2CCOCC2)nc(N2CCOCC2)c2c1CCN(Cc1ccccc1)C2 | inactive: 83% |
| CCOC(=O)c1c(NC(=O)c2ccc(S(=O)(=O)N(CCOC)CCOC)cc2)sc2c1CC(C)(C)NC2(C)C | inactive: 78% |
| Cc1ccccc1NS(=O)(=O)c1ccc(Br)s1 | inactive: 109% |
| C=CCNC(=O)c1ccc(N2C(=O)c3ccccc3C2=O)cc1 | inactive: 92% |
| Cc1ccc(C(C)(C)C)c(OCC(=O)NCCc2nc3ccccc3[nH]2)c1 | inactive: 70% |
| CC(C)(C)S(=O)(=O)c1cccc2ccccc12 | inactive: 99% |
| CC1CCN(C(=O)Cn2nnc3ccccc3c2=O)CC1 | inactive: 102% |
| COc1ccc(CCN2C(=O)c3oc4ccc(F)cc4c(=O)c3C2c2ccc(C(C)(C)C)cc2)cc1 (stereo not drawn) | inactive: 73% |
| CCc1cccc(C)c1NC(=O)Cn1ccn(-c2ccc(F)cc2)c(=O)c1=O | inactive: 52% |
| CCOc1ccc(C2CC(=O)c3c([nH]c(C(=O)OCc4ccccc4)c3C)C2)cc1 (stereo not drawn) | inactive: 88% |
| Cc1nc2ccc(S(=O)(=O)N(C)CC(=O)Nc3ccc(Br)c(C)c3)cc2s1 | inactive: 101% |
| Cn1c(C(=O)OCC(=O)NC2CCCCC2)cc2sccc21 | inactive: 98% |
| CCn1c2ccccc2c2cc(/C=N/NC(=O)c3ccncc3)ccc21 | inactive: 87% |
